Hit rate of the full screen: of about 44,000 compounds, about 340 (0.77%) were called active. Inconclusive results (about 5%) are left out. Calls follow the shape of the dose curve; as a rule, active = well fitted inhibition curve with a large enough effect; inconclusive = small, poorly fitted or top-dose-only effect; inactive = flat fitted curve, though single readings scatter. The list shows a part of the results.
Experiment: Acumen qHTS Assay for Inhibitors of the mTORC1 Signaling Pathway in MEF (Tsc2-/-, p53-/-) Cells: Sytravon;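 also: plate controls were DMSO for no effect and rapamycin for full effect; nearly all actives have a fitted effect of over 50% in size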
Details: phospho-rpS6 immunofluorescence/PI, 24 h; series mostly up to 38.3 µM; activity change, negative = inhibition: at the top concentration
How it was run: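 Immunofluorescence of rpS6 phosphorylation in Tsc2-/-, p53-/- MEFs after 24 h compound exposure, normalized to propidium iodide signal. Activity is expressed as % positive cells, thresholded with 7.5 nM rapamycin.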

Activity change, negative = inhibition, inactive:
CCC(=O)N1CCc2cc(S(=O)(=O)NC(C(=O)Nc3ccc(C(C)=O)cc3)C(C)C)ccc21 (centres undefined) 0.205%
Cn1c(=O)oc2cc(S(=O)(=O)Nc3ccc(C(=O)O)cc3)ccc21 -1.34%
CCC(=O)N1CCc2cc(Br)cc(S(=O)(=O)N3CCCC(C(=O)N(C)c4ccc(Br)cc4)C3)c21 (centres undefined) -11.3%
COc1ccccc1CNC(=O)c1ccc(-c2nc(CN3CCc4ccccc43)c(C)o2)cc1 -26.5%
Cc1ccc(OCC(=O)Nc2ccc3nc(SCC(=O)N4CCc5ccccc54)sc3c2)cc1 -0.22%
COc1ccc(NC(=O)c2cccn2-c2nnc(N3CCCCC3)s2)cc1 -2.7%
CCOC(=O)C1CCCN(c2nc3c(S(=O)(=O)c4ccc(C)c(C)c4)nnn3c3ccc(Cl)cc23)C1 (centres undefined) -4.39%
CCn1c(=O)c2sccc2n2c(CCC(=O)Nc3cc(C)cc(C)c3)nnc12 6.44%
Cc1ccc(Cl)cc1N1CCN(c2ncnc3onc(C)c23)CC1 3.18%
Clc1ccc(N2CCN(c3ncnc4c3nc3n4CCCC3)CC2)cc1 -5.85%
COc1ccc(-c2nc(CS(=O)CC(=O)NCc3ccccc3OC)c(C)o2)cc1 (centres undefined) -7.73%
COc1cccc(N2CCN(C(=O)C3CCN(S(=O)(=O)c4ccc5c(c4)oc(=O)n5C)CC3)CC2)c1 -1.18%
COc1ccc2c(c1)CC(C(=O)NCCCN1CCN(c3ccc(F)cc3)CC1)CO2 (centres undefined) 1.06%
COc1cccc(C(=O)Nc2cc3c(cc2C(=O)c2ccc(C)cc2)OCCO3)c1 2.59%
CCOc1ccc(CCNC(=O)CN2C(=O)C(CC)Oc3ccccc32)cc1OCC (centres undefined) 10.2%
COc1ccc(C(=O)NCc2nnc(SCC(=O)Nc3ccccc3)n2-c2ccc(F)cc2)cc1 -6.64%
COc1ccc(OC)c(NC(=O)CSc2ccnc(=O)[nH]2)c1 -3.02%
Cn1c(=O)oc2cc(S(=O)(=O)CCC(=O)N3CCN(c4ccccc4)CC3)ccc21 4.11%
COc1ccccc1-c1cc(C(=O)Nc2sc3c(c2C#N)CCCC3)no1 7.75%
COc1ccccc1N1CCN(S(=O)(=O)c2c(C)sc3ncn(CC(=O)Nc4cccc(Cl)c4)c(=O)c23)CC1 -9.58%
COC(=O)c1c(-c2ccc(Cl)cc2)noc1N1CCN(c2ccc(OC)cc2)CC1 1.52%
Cc1ccc2c(c1)NC(=O)C(CC(=O)Nc1cc(Cl)ccc1C)O2 (centres undefined) -5.13%
COc1ccc(C2CC(c3c(O)n(C4CCCCC4)c(=O)[nH]c3=O)=Nc3ccccc3S2)cc1 (centres undefined) -0.559%
CCc1nn2c(=O)cc(COC(=O)CNC(=O)c3ccccc3)nc2s1 -5.12%
O=C(Nc1ccc(Br)cc1)C1CCN(c2cnccn2)CC1 1.25%
COc1cc(OC)c(Nc2cc(C)nc3ncnn23)cc1Cl -19.8%
CCOc1ccc(C(=O)Nc2cccc(NC(=O)c3ccco3)c2)cc1Cl 7.53%
COc1ccccc1CNC(=O)c1ccc(N2CCCC2)c(NC(=O)NCc2ccccc2)c1 17.9%
CCN(CC)S(=O)(=O)c1nnc(NC(=O)COc2ccccc2Cl)s1 1.76%
O=C(COc1ccccc1F)OCc1cc(=O)n2nc(-c3cccs3)sc2n1 0%
NC(=O)c1cc(S(=O)(=O)N2CCN(c3ccc(F)cc3)CC2)cs1 -9.2%
CCC(CC)c1nn2c(=O)cc(COc3ccc(NC(=O)c4ccccc4Cl)cc3)nc2s1 2.9%
Cc1ccccc1CNC(=O)C1CCN(c2nn3cc(-c4ccc(F)cc4)nc3s2)CC1 -0.404%
CC1CCCCN1CCCNC(=O)Cn1ncc2c([nH]c3ccccc32)c1=O (centres undefined) -1.23%
Cc1cccc(CNS(=O)(=O)c2ccc3[nH]c(=O)ccc3c2)c1 -2.99%
COc1ccc(Cn2c(=O)[nH]c3cc(C(=O)N4CCN(c5cc(C)ccc5C)CC4)ccc3c2=O)cc1 2.76%
COc1ccc(-c2cnnn2-c2ccc(NC(=O)c3c(F)cccc3F)cc2)cc1 -1.14%
COc1ccc(-c2cnnn2-c2ccc(NC(=O)c3ccc(S(=O)(=O)N(C)C)cc3)cc2)cc1 8.12%
CC(=O)c1cc(-c2ccccc2)n(CC(=O)NC2CCCCC2)c1C -8.51%
CCOC(=O)c1cnc2cc(-c3ccc(Cl)cc3)nn2c1-c1ccccc1 -2.11%
CC(C)Cn1c(=O)c2ccccc2n2c(CCC(=O)Nc3cccc(Cl)c3)nnc12 -5.25%
CCCOc1ccc(-c2nn(-c3ccccc3)cc2C2NC(=O)NC(C)=C2C(=O)OC(C)C)cc1 (centres undefined) -0.715%
O=C1Nc2c(c(=O)[nH]c(=O)n2-c2ccccc2)C1(NS(=O)(=O)c1ccc(Cl)cc1)C(F)(F)F (centres undefined) 3.35%
CCOc1ccccc1/C=C/c1onc(C)c1S(=O)(=O)N1CCC(C(=O)N(CC)CC)CC1 -5.19%
Cc1ccc(NC(=O)Cn2c(=O)n(CCCCCC(=O)NCc3ccc(F)cc3)c(=O)c3sccc32)cc1C -2.53%
O=C(Cc1ccc(F)cc1)NC1CC(=O)N(c2ccccc2)C1 (centres undefined) 0.0373%
CCOc1ccc(Cn2nnc3c(=O)[nH]c(C4CCN(C(=O)c5ccccc5)CC4)nc32)cc1 1.1%
COc1cc(-c2nnc(SCC(=O)NCc3ccccc3Cl)o2)cc(OC)c1OC 2.89%
Cc1cc(C)cc(-n2nnc(-c3nc(-c4ccc5c(c4)OCO5)no3)c2C)c1 9.45%
CC(=O)c1ccc(NC(=O)c2cn3c4c(ccc(Cl)c4c2=O)OC(C)C3)cc1 (centres undefined) 1.28%
COc1cc2c(=O)n(CCC(=O)NCC3CCCO3)c(=O)n(CC(=O)Nc3ccc(C)cc3)c2cc1OC (centres undefined) 14.7%
Cc1ccc(S(=O)(=O)C(CNC(=O)C(=O)NCc2ccc(Cl)cc2)c2cccs2)cc1 (centres undefined) -0.0524%
Cc1ccc(C(=O)NCCn2c(C)cc3ccccc32)cc1C -6.53%
CC(Oc1ccc(F)cc1)C(=O)NCC1(N(C)C)CCCCC1 (centres undefined) -0.618%
Cc1c(NC(=O)c2ccc(OC(C)C)cc2)cccc1-c1nc2ncccc2o1 6.32%
Cc1ccc(S(=O)(=O)c2cn(CC(=O)Nc3ccc(C)c(Cl)c3)c3ccc(C)cc3c2=O)cc1 -17%
COc1cccc(C(=O)NCCSc2c(-c3ccc(F)cc3)[nH]c3ccccc23)c1OC -20.4%
Cc1ccc(CNC(=O)C2CCCN(S(=O)(=O)c3ccc4c(c3)oc(=O)n4C)C2)cc1 (centres undefined) -6.13%
O=C1CN(C(=O)c2ccc(S(=O)(=O)N3CCCCC3)cc2)C(c2ccc(F)cc2)c2cc(F)ccc2N1 (centres undefined) -0.242%
